{
  "source": "paper PMC12820563",
  "note": "The list shows a part of the results. The list includes weakly bound sequences.",
  "data": [
    {"biological_target": "T1, MBP-FoxP3dN (UniProt Q99JB6)", "T1 sequence": "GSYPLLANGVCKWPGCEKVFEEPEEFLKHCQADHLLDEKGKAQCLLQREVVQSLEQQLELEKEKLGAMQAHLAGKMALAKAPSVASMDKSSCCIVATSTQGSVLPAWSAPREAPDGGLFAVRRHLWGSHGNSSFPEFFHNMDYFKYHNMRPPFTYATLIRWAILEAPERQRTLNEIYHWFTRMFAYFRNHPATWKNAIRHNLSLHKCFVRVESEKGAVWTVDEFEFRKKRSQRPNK", "assay": "PD-seq (MBP pull-down with sequencing)", "details": "20 mM Tris-HCl pH 7.5, 100 mM NaCl, 1.5 mM MgCl2, 0.4 uM protein, 0.1 uM dsDNA library, 30 min, room temperature, amylose pull-down; high values mean tight binding; double strand, one strand shown", "values": [
      {"sequence": "GATGATTGTTCTCCCAGCTGATGAATTCTAATCCTCGAGTAAACAAATTTTCCTAATCTTTCTGTTCAAGCGCCATCTAC", "binding signal (RPM ratio (pull-down/input))": 0.317},
      {"sequence": "GATGATTGTTCTCCCAGCTGATGAATTCCATATATCGAGTAAACAAATTTTCCTAATCTTTCTGTTCAAGCGCCATCTAC", "binding signal (RPM ratio (pull-down/input))": 0.64},
      {"sequence": "GATGATTGTTCTCCCAGCTGATGAATTTAGTACCTCGAGTAAACAAATTTTCCTAATCTTTCTGTTCAAGCGCCATCTAC", "binding signal (RPM ratio (pull-down/input))": 0.966},
      {"sequence": "GATGATTGTTCTCCCAGCTGATGAATTTGTCACATCGAGTAAACAAATTTTCCTAATCTTTCTGTTCAAGCGCCATCTAC", "binding signal (RPM ratio (pull-down/input))": 3.14},
      {"sequence": "GATGATTGTTCTCCCAGCTGATGAATTTGACGAGTCGAGTAAACAAATTTTCCTAATCTTTCTGTTCAAGCGCCATCTAC", "binding signal (RPM ratio (pull-down/input))": 0.235},
      {"sequence": "GATGATTGTTCTCCCAGCTGATGAATTGTGATAATCGAGTAAACAAATTTTCCTAATCTTTCTGTTCAAGCGCCATCTAC", "binding signal (RPM ratio (pull-down/input))": 0.868},
      {"sequence": "GATGATTGTTCTCCCAGCTGATGAATTCCGTGACTCGAGTAAACAAATTTTCCTAATCTTTCTGTTCAAGCGCCATCTAC", "binding signal (RPM ratio (pull-down/input))": 0.812},
      {"sequence": "GATGATTGTTCTCCCAGCTGATGAATTTGATGACTCGAGTAAACAAATTTTCCTAATCTTTCTGTTCAAGCGCCATCTAC", "binding signal (RPM ratio (pull-down/input))": 3.97},
      {"sequence": "GATGATTGTTCTCCCAGCTGATGAATTCGGGAGCTCGAGTAAACAAATTTTCCTAATCTTTCTGTTCAAGCGCCATCTAC", "binding signal (RPM ratio (pull-down/input))": 0.201},
      {"sequence": "GATGATTGTTCTCCCAGCTGATGAATTGCCCACCTCGAGTAAACAAATTTTCCTAATCTTTCTGTTCAAGCGCCATCTAC", "binding signal (RPM ratio (pull-down/input))": 0.45},
      {"sequence": "GATGATTGTTCTCCCAGCTGATGAATTACTAAGATCGAGTAAACAAATTTTCCTAATCTTTCTGTTCAAGCGCCATCTAC", "binding signal (RPM ratio (pull-down/input))": 0.254},
      {"sequence": "GATGATTGTTCTCCCAGCTGATGAATTCTCTCCATCGAGTAAACAAATTTTCCTAATCTTTCTGTTCAAGCGCCATCTAC", "binding signal (RPM ratio (pull-down/input))": 0.223},
      {"sequence": "GATGATTGTTCTCCCAGCTGATGAATTATCGGGATCGAGTAAACAAATTTTCCTAATCTTTCTGTTCAAGCGCCATCTAC", "binding signal (RPM ratio (pull-down/input))": 0.275},
      {"sequence": "GATGATTGTTCTCCCAGCTGATGAATTAAGTATCTCGAGTAAACAAATTTTCCTAATCTTTCTGTTCAAGCGCCATCTAC", "binding signal (RPM ratio (pull-down/input))": 4.17},
      {"sequence": "GATGATTGTTCTCCCAGCTGATGAATTCATTACTTCGAGTAAACAAATTTTCCTAATCTTTCTGTTCAAGCGCCATCTAC", "binding signal (RPM ratio (pull-down/input))": 0.462},
      {"sequence": "GATGATTGTTCTCCCAGCTGATGAATTCTTGGTCTCGAGTAAACAAATTTTCCTAATCTTTCTGTTCAAGCGCCATCTAC", "binding signal (RPM ratio (pull-down/input))": 0.35},
      {"sequence": "GATGATTGTTCTCCCAGCTGATGAATTATAATGTTCGAGTAAACAAATTTTCCTAATCTTTCTGTTCAAGCGCCATCTAC", "binding signal (RPM ratio (pull-down/input))": 1.16},
      {"sequence": "GATGATTGTTCTCCCAGCTGATGAATTACGCACGTCGAGTAAACAAATTTTCCTAATCTTTCTGTTCAAGCGCCATCTAC", "binding signal (RPM ratio (pull-down/input))": 1.75},
      {"sequence": "GATGATTGTTCTCCCAGCTGATGAATTAGGTTATTCGAGTAAACAAATTTTCCTAATCTTTCTGTTCAAGCGCCATCTAC", "binding signal (RPM ratio (pull-down/input))": 2.12},
      {"sequence": "GATGATTGTTCTCCCAGCTGATGAATTCATTTTGTCGAGTAAACAAATTTTCCTAATCTTTCTGTTCAAGCGCCATCTAC", "binding signal (RPM ratio (pull-down/input))": 1.9},
      {"sequence": "GATGATTGTTCTCCCAGCTGATGAATTCCTTTCTTCGAGTAAACAAATTTTCCTAATCTTTCTGTTCAAGCGCCATCTAC", "binding signal (RPM ratio (pull-down/input))": 0.297},
      {"sequence": "GATGATTGTTCTCCCAGCTGATGAATTCAATAGTTCGAGTAAACAAATTTTCCTAATCTTTCTGTTCAAGCGCCATCTAC", "binding signal (RPM ratio (pull-down/input))": 1.5},
      {"sequence": "GATGATTGTTCTCCCAGCTGATGAATTATAGCAGTCGAGTAAACAAATTTTCCTAATCTTTCTGTTCAAGCGCCATCTAC", "binding signal (RPM ratio (pull-down/input))": 0.531},
      {"sequence": "GATGATTGTTCTCCCAGCTGATGAATTGGACCCTTCGAGTAAACAAATTTTCCTAATCTTTCTGTTCAAGCGCCATCTAC", "binding signal (RPM ratio (pull-down/input))": 0.255},
      {"sequence": "GATGATTGTTCTCCCAGCTGATGAATTTGGGGACTCGAGTAAACAAATTTTCCTAATCTTTCTGTTCAAGCGCCATCTAC", "binding signal (RPM ratio (pull-down/input))": 0.516},
      {"sequence": "GATGATTGTTCTCCCAGCTGATGAATTAACCCTATCGAGTAAACAAATTTTCCTAATCTTTCTGTTCAAGCGCCATCTAC", "binding signal (RPM ratio (pull-down/input))": 0.322},
      {"sequence": "GATGATTGTTCTCCCAGCTGATGAATTGTCTAACTCGAGTAAACAAATTTTCCTAATCTTTCTGTTCAAGCGCCATCTAC", "binding signal (RPM ratio (pull-down/input))": 0.395},
      {"sequence": "GATGATTGTTCTCCCAGCTGATGAATTACAAATTTCGAGTAAACAAATTTTCCTAATCTTTCTGTTCAAGCGCCATCTAC", "binding signal (RPM ratio (pull-down/input))": 0.415},
      {"sequence": "GATGATTGTTCTCCCAGCTGATGAATTACACTTCTCGAGTAAACAAATTTTCCTAATCTTTCTGTTCAAGCGCCATCTAC", "binding signal (RPM ratio (pull-down/input))": 0.637},
      {"sequence": "GATGATTGTTCTCCCAGCTGATGAATTACGTCATTCGAGTAAACAAATTTTCCTAATCTTTCTGTTCAAGCGCCATCTAC", "binding signal (RPM ratio (pull-down/input))": 1.44},
      {"sequence": "GATGATTGTTCTCCCAGCTGATGAATTAGACCGCTCGAGTAAACAAATTTTCCTAATCTTTCTGTTCAAGCGCCATCTAC", "binding signal (RPM ratio (pull-down/input))": 0.274}
    ]}
  ]
}
